Experimental findings from patent publication CN117247457A (SANYOU BIO INC, dated 2023) are described below.

A word on the IC50: it is the concentration that gives 50% inhibition. High values mean lower potency, low ones higher potency.

This experiment deals with T1, 人PD-L1 expressed on cells (huPD-L1-CHO-S细胞) (human, UniProt Q9NZQ7).
T1 construct: whole, on cells; also called CD3L-PD-L1-CHO细胞 (reporter assay); 细胞上表达的PD-L1
Nature of the experiment: FACS blocking: antibody on huPD-L1-CHO-S cells, then biotinylated PD-1-His (1 ug/mL), PE-streptavidin.

T1 sequence (Q9NZQ7 19-290): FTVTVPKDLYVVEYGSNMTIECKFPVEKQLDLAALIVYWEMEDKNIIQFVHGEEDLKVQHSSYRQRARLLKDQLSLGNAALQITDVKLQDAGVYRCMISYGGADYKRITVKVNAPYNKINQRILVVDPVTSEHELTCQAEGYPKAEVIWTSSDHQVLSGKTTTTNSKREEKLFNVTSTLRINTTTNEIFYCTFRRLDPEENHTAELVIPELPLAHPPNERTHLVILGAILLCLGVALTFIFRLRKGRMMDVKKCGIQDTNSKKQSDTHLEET

B1: 抗人PD-L1抗体D21-4 (VHH PD-L1-huFc) (Fc fusion)
chain: EVQLVESGGGLVQPGGSLRLSCAASRTDRNINTMHWYRQAPGKGREWVGTIFIDLNTIVTDSVKGRFTISRDNAKNTLYLQMNTLRAEDTAVYYCAADVSGYGRAWGQGTTVTVSS[left out - human IgG1 Fc]
notes: also called 对照抗体D21-4
As to B1, half-maximal inhibition (IC50) required 6.64 nM.
